# Results reported in PubChem BioAssay (NCATS).
# Where “and” joins values, the source holds several entries; their conditions need not be identical. Equal entries are not always repeated. Inconclusive results, whose numbers are uncertain, are shown with a selection of clear calls. For some assays here: Where the call is inconclusive, the potency comes from a doubtful curve fit. Calls of active or inactive are those of the source. Unless noted, the call rests on the fitted dose curve; in most records, active means well fitted curve in the direction sought with a large enough effect; inconclusive means small, poorly fitted or top-dose-only effect, or another doubt; inactive means no such curve, though single readings can be large; an effect the other way counts as inactive or inconclusive.
# Experiments:
# [1] = qHTS Assay for Identification of Small Molecule Antagonists for NFkB Signaling Pathway. (AID 624479; calls by dose curve;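 further: pathway stimulated with TNF alpha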)
# [2] = qHTS of pediatric cancer cell lines to identify multiple opportunities for drug repurposing: Primary screen for TC32 cells (AID 1347089); further: nearly all actives have a fitted effect of over 60% in size
# Summary of the method: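 In the primary qHTS, MIPE compounds were tested at 11 concentrations (0.78 nM to 46 µM) and NPC compounds at 8 (0.59 nM to 46 µM) on TC32 cells for 48 h. CellTiter-Glo luminescence gave viability.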
# [3] = qHTS of pediatric cancer cell lines to identify multiple opportunities for drug repurposing: Primary screen for NB-EBc1 cells (AID 1347095)
# Summary of the method: (§1)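 Viability was measured as metabolically active cells after 48 hours of treatment, read by CellTiter-Glo luminescence. Compounds were tested at multiple final concentrations, giving concentration-response curves.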
# [4] = qHTS of pediatric cancer cell lines to identify multiple opportunities for drug repurposing: Primary screen for Saos-2 cells (AID 1347097); conditions: Saos-2 viability, CellTiter-Glo ATP luminescence, 48 h; activity change, negative = cytotoxic: at 46 µM (top of the series); further: nearly all actives have a fitted effect of over 40% in size
# Summary of the method: as §1
# [5] = qHTS of pediatric cancer cell lines to identify multiple opportunities for drug repurposing: Primary screen for SK-N-SH cells (AID 1347098); conditions: SK-N-SH viability, CellTiter-Glo luminescence, 48 h; activity change, negative = cytotoxic: at 57 µM (top of the series); further: nearly all actives have a fitted effect of over 65% in size
# Summary of the method: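 Cells (500-1,000/well) rested 5 h, then received compounds for 48 h; metabolically active cells were measured by CellTiter-Glo luminescence. Final concentrations spanned up to 46 µM (MIPE, 11-point) or 0.59 nM-46 µM (NPC, 8-point) in primary screens, 11-point in follow-ups.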
# [6] = Primary qHTS for inhibitors of nuclear receptor binding SET domain protein 2 (NSD2) in an isogenic RCH-ACV NSD2 p.E1099K mutant (9B) (AID 1645876); further: nearly all actives have a fitted effect of over 70% in size
# [7] = Quantitative High-Throughput drug screen in 47 multiple myeloma cell lines against the NCATS MIPE library collection: H1112_PLB cell viability assay (AID 1918967; further: nearly all actives have a fitted effect of over 30% in size)
# Summary of the method: (§2)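 Steps: seed 500 cells per well; pin-transfer MIPE 4.0 library; incubate 48 h at 37C, 5% CO2, humidified; add CellTiter-Glo, 5 min room temperature; read luminescence.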
# [8] = Quantitative High-Throughput drug screen in 47 multiple myeloma cell lines against the NCATS MIPE library collection: MMM1_PLB cell viability assay (AID 1918976); further: nearly all actives have a fitted effect of over 35% in size
# Summary of the method: (§3)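 qHTS format: cells plated (500/well), pin-dosed with MIPE 4.0 compounds, kept 48 h at 37 °C. Readout was CellTiter-Glo luminescence, median RLU.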
# [9] = Quantitative High-Throughput drug screen in 47 multiple myeloma cell lines against the NCATS MIPE library collection: OCIMY7_PLB cell viability assay (AID 1918987); conditions: OCI-MY7 myeloma viability, CellTiter-Glo ATP, 48 h; viability (% of DMSO): at 45.8 µM (top of the series); further: nearly all actives have a fitted effect of over 65% in size
# Summary of the method: as §3
# [10] = qHTS for identification of novel therapeutic agents for treatment of microphthalmiaassociated transcription factor (MiT) renal cell carcinoma (RCC) (AID 1963991; calls by dose curve); conditions: TFE3-RCC UOK109 viability, CellTiter-Glo, 48 h; active = Z-AUC below -0.8 in all three lines
# Summary of the method: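 Curves over 11 concentrations were fitted to CellTiter-Glo luminescence, scaled between empty wells (0%) and DMSO (100%) viability. Cells were UOK109, UOK124 and UOK145 TFE3-fusion RCC lines at 500/well, exposed 48 hours at 37 C.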
# [11] = qHTS of pediatric cancer cell lines to identify multiple opportunities for drug repurposing: Primary screen for SJ-GBM2 cells (AID 1347091)
# Summary of the method: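 Eight- or eleven-point concentration series, 48 h treatment at 37 degrees C in growth media; readout CellTiter-Glo luminescence. Potency and efficacy were taken from the concentration-response curves.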
# [12] = qHTS of pediatric cancer cell lines to identify multiple opportunities for drug repurposing: Primary screen for NB1643 cells (AID 1347099); further: nearly all actives have a fitted effect of over 50% in size
# Summary of the method: as §1
# [13] = Quantitative High-Throughput drug screen in 47 multiple myeloma cell lines against the NCATS MIPE library collection: KMS27_JCRB cell viability assay (AID 1918970); conditions: KMS27 myeloma cells, CellTiter-Glo ATP viability, 48 h; viability (% of DMSO): at 45.8 µM (top of the series); further: nearly all actives have a fitted effect of over 30% in size
# Summary of the method: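 CellTiter-Glo luminescence after 48 h drug exposure at 37 °C; 500 cells/well, 1536-well format, pin-tool compound addition; DMSO = 100%, media-only = 0% viability.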
# [14] = Quantitative High-Throughput drug screen in 47 multiple myeloma cell lines against the NCATS MIPE library collection: KMS28BM_JCRB cell viability assay (AID 1919874); further: nearly all actives have a fitted effect of over 35% in size
# Summary of the method: as §3
# [15] = qHTS to identify inhibitors of the type 1 interferon - major histocompatibility complex class I in skeletal muscle: primary screen against the NCATS Mechanism Interrogation Plate v5.0 (MIPE) Libary (AID 1347411); conditions: iHSKM cells + IFN-b, HiBiT-tagged MHC-I luminescence, 24 h; series mostly up to 45.8 µM; further: nearly all actives have a fitted effect of over 65% in size
# Summary of the method: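 Luminescence from CRISPR HiBit-tagged endogenous HLA-B in human myoblasts reported MHC class I level after 24 h of IFN-beta (4 ng/ml) plus compound. Compounds ran as 11-point 1:3 series, top 46 uM final.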
# [16] = Cytotoxicity counterscreen for NFkB agonists and antagonists (AID 624476)
# [17] = qHTS of pediatric cancer cell lines to identify multiple opportunities for drug repurposing: Primary screen for MG 63 (6-TG R) cells (AID 1347105); conditions: MG 63 (6-TG R) viability, CellTiter-Glo, 48 h; activity change, negative = cytotoxic: at 46 µM (top of the series) unless noted; further: nearly all actives have a fitted effect of over 50% in size
# Summary of the method: as §1
# [18] = qHTS of pediatric cancer cell lines to identify multiple opportunities for drug repurposing: Primary screen for control Hh wild type fibroblast cells (AID 1347106); further: nearly all actives have a fitted effect of over 55% in size
# Summary of the method: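 Cells (500-1,000/well) in growth media were settled 5 h at 37 degrees C, then given compounds for 48 h. Viability was read as CellTiter-Glo luminescence. Primary runs used MIPE at 11 points (0.78 nM-46 µM) and NPC at 8 points (0.59 nM-46 µM); follow-ups used 11 points.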
# [19] = Quantitative High-Throughput drug screen in 47 multiple myeloma cell lines against the NCATS MIPE library collection: OPM2_DSMZ cell viability assay (AID 1919872); further: nearly all actives have a fitted effect of over 30% in size
# Summary of the method: as §2
# MCC-26 = test: qHTS assay to identify novel small-molecules to repurpose for Merkel cell carcinoma treatment (AID 1296009); conditions: MCC and control cell lines, CellTiter-Glo viability, 72 h; series mostly up to 46 µM; further: nearly all actives have a fitted effect of over 60% in size
# Summary of the method: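 Viability readout: ATP luminescence (CellTiter-Glo) after 72 hr drug exposure at 37 degree celsius. Dose-response format was 8 points for NPC and 11 points for MIPE; data normalized to in-plate controls.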
# Potency means the concentration at half of the fitted maximal effect; tags describe the fitted curve by direction and shape.
smiles,measurement,setting,value
Nc1nc(Cl)nc2c1ncn2[C@H]1C[C@H](O)[C@@H](CO)O1,Potency,[1],inactive
same,Potency,[2],active: 1.17 µM
same,Potency,[3],"inconclusive: 23.5 µM [cytotoxic, single point]"
same,Potency,[4],inactive
same,Potency,[5],"inconclusive: 21.5 µM [cytotoxic, partial curve]"
same,Potency,[6],active: 46.8 nM
same,Potency,[7],"inconclusive: 1.32 µM [cytotoxic, full curve]"
same,Potency,[8],active: 4.69 µM
same,Potency,[9],active: 0.001 µM
same,Potency,[10],"inconclusive: 0.469 µM [falling, full curve]"
Cc1cccc(C=NNc2cc(N3CCOCC3)nc(OCCc3ccccn3)n2)c1,Potency,[2],"inconclusive: 4.15 µM [cytotoxic, full curve, poor fit]"
same,Potency,[11],active: 1.32 µM
same,Potency,[3],active: 1.32 µM
same,Potency,[4],"inconclusive: 37.2 µM [cytotoxic, single point]"
same,Potency,[12],active: 16.6 µM
same,Potency,[7],"inconclusive: 20.9 µM [cytotoxic, partial curve]"
same,Potency,[13],"inconclusive: 11.8 µM [cytotoxic, single point]"
same,Potency,[9],"inconclusive: 16.6 µM [cytotoxic, partial curve, poor fit]"
same,Potency,[14],"inconclusive: 9.35 µM [cytotoxic, partial curve]"
C=CCc1cccc(/C=N/NC(=O)CN2CCN(Cc3ccccc3)CC2)c1O,Potency,[1],"inconclusive: 21.1 µM [inhibitor, single point]"
same,Potency,[15],inactive
COC(=O)C1=C(C)NC(C)=C(C(=O)OCCCN2CCC(c3ccccc3)(c3ccccc3)CC2)[C@H]1c1cccc([N+](=O)[O-])c1,Potency,[16],"inconclusive: 33.2 µM [inhibitor, single point]"
CC(C)OC(=O)C1=CN(C(=O)c2ccc(F)c(F)c2)CC(C)(C)c2c1[nH]c1ccccc21,Potency,[4],"inconclusive: 2.35 µM [cytotoxic, full curve, poor fit]"
same,Potency,[12],"inconclusive: 8.33 µM [cytotoxic, full curve]"
same,Potency,[15],inactive
same,Potency,[7],inactive
same,Potency,[8],"inconclusive: 0.0074 µM [rising, full curve, poor fit]"
same,Potency,[9],"inconclusive: 0.372 µM [cytotoxic, full curve, poor fit]"
same,Potency,[14],"inconclusive: 0.833 µM [rising, partial curve, poor fit]"
O=C1Nc2ccc(Cl)cc2[C@@](C#CC2CC2)(C(F)(F)F)O1,Potency,[11],"inconclusive: 33.5 µM [cytotoxic, single point]"
same,Potency,[3],"inconclusive: 33.5 µM [cytotoxic, single point]"
same,Potency,[4],"inconclusive: 29.9 µM [cytotoxic, single point]"
same,Potency,[5],"inconclusive: 24.4 µM [cytotoxic, single point]"
same,Potency,[12],"inconclusive: 26.6 µM [cytotoxic, single point]"
same,Potency,[17],"inconclusive: 33.5 µM [cytotoxic, single point]"
same,Potency,[15],"inconclusive: 41.5 µM [inhibitor, single point] and inconclusive: 46.6 µM [inhibitor, single point]"
same,Potency,[6],"active: 18.6 µM and inconclusive: 20.9 µM [inhibitor, partial curve, poor fit]"
Cc1[nH]c2ccccc2c1CCNCc1ccc(C=CC(=O)NO)cc1,Potency,[1],"inconclusive: 0.119 µM [inhibitor, partial curve]"
same,Potency,[2],active: 1.65 µM
same,Potency,[11],active: 0.148 µM
same,Potency,[4],active: 0.264 µM
same,Potency,[12],active: 0.187 µM
same,Potency,[17],active: 0.469 µM
same,Potency,[18],active: 1.87 µM
same,Potency,[13],"inconclusive: 0.0235 µM [cytotoxic, full curve, poor fit]"
same,Potency,[8],"inconclusive: 0.118 µM [cytotoxic, full curve, poor fit]"
same,Potency,[19],active: 0.0935 µM
same,Potency,MCC-26,active: 0.935 µM
C=CC(=O)N1CCC[C@@H](n2nc(-c3ccc(Oc4ccccc4)cc3)c3c(N)ncnc32)C1,Potency,MCC-26,"inconclusive: 26.4 µM [inhibitor, single point]"
O=C(NCCCNc1nc(Nc2cccc(NC(=O)N3CCCC3)c2)ncc1I)c1cccs1,Potency,[16],"inconclusive: 33.2 µM [inhibitor, single point]"
same,Potency,[17],active: 3.72 µM
same,Potency,[18],"inconclusive: 33.2 µM [cytotoxic, single point]"
same,Potency,[15],inactive
same,Potency,[6],active: 5.8 µM and active: 1.48 µM
same,Potency,[9],active: 1.87 µM
same,Potency,[19],active: 16.6 µM
same,Potency,[14],"inconclusive: 2.35 µM [cytotoxic, full curve, poor fit]"
same,Potency,[10],"inconclusive: 20.9 µM [falling, partial curve]"
same,Potency,MCC-26,"inconclusive: 18.7 µM [inhibitor, partial curve, poor fit]"
